Assay results published in the supplement of paper PMC11417369.
± gives the standard deviation of the averaged measurements. The list shows a part of the results.

Tested on: PfAP2-G AP2 domain (GST-tagged)
Assay: gcPBM binding intensity (ln(normalized median fluorescence intensity)); higher = stronger DNA binding
Outline: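 GST-fused DNA-binding domains of P. falciparum, expressed in E. coli, were applied at about 25 μg on average for 1 h to an Agilent 4 × 180k array of primer-extended double-stranded 36-bp intergenic genomic probes and negative controls. Binding intensity is the highest Masliner-normalised natural-log median intensity across replicate spots of either probe orientation, measured with Alexa488 anti-GST antibody and a 488 nm scan.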

Sequence	gcPBM binding intensity (ln)
GTATATATATATATATATATATATTTTTATTTATTT [CACACA_negctrl_site589]	9.505 ± 0.064
TCGTGGTTTTAATAAGTGCGCAATTTAAATATTTTT	10.2 ± 0.11
TATTATTATTATTACACACACAATTATATTTACCCC [CACACA_site503]	10.3 ± 0.36
TATACACCCGGACACACACACATATATATATATATA [CACACA_site5030]	10.8 ± 0.51
ATATTATATATATAGGTGCGAGTATTTTATAAATAT [GTGCAC_site9889]	10.2 ± 0.15
ATATATATATTATATGCACACGTTAAAATTTCATAT [CACACA_site4552]	10.1 ± 0.11
TAAAAATATTAATAAACACACAATGAGATATTGAAT [CACACA_site3153]	9.8 ± 0.27
AAATATAAAATTTATTGTACATTATATATAATATAT [XGTACX_site1416]	10.8 ± 0.52
TGATATATTTATATTACACACTTAAACGAAAAAAAA [CACACA_site3021]	9.995 ± 0.021
TATTATAATATTTATACACACATAATTTTGATAAAT [CACACA_site583]	9.95 ± 0.16
AAAAAAAATAAAGAGAAAAAAAAAAGAAAATTATAT [GTGCAC_negctrl_site550]	9.62 ± 0.29
TAAATTAATATGTATCGTACAATATATAAAACGATG [XGTACX_site2818]	10.8 ± 0.49
CATTCTTGTTTAAAAAGTACATAAACATATATATAT [XGTACX_site1751]	11.3 ± 0.92
GTCATAAATGTACGCACACATACATAAACATATACA [CACACA_site650]	11.5 ± 0.93
GTTCTTTTATATATTTGTACATATTTATATATATTG [XGTACX_site4078]	11.1 ± 0.57
ACATATTATATAACTCGTACTCGTAAAATATGTTGT [XGTACX_site2240]	11.1 ± 0.62
TTCTTCTGTTTTATTACACACCATTTTGCGTATACA [CACACA_site2070]	10.6 ± 0.47
TAAACATAAATATGCACACATATACATATATTCATA [CACACA_site2667]	9.895 ± 0.021
AAGAAAAATATATTTATATATATATATATTAAATAT [TGCATGCA_negctrl_site500]	9.48 ± 0.16

Sequence	gcPBM binding intensity (ln)
TATATGCCTATAAGAAGTACTGTGTAATGTAATATA [XGTACX_site8089]	11 ± 0.67
AAAGAAAAAAAAAACACACACACACCCATTCAATAT [CACACA_site38]	10.2 ± 0.23
TATAATAATATTTATTGTACAATTAGTTTAATTCAT [XGTACX_site272]	11 ± 0.52
TTTATTATATAAACATGTACACAATTTGGTATATTC [XGTACX_site3112]	11.5 ± 0.72
ACAGCCAATACGGAAACACACAAGTTATTTTATCAT [CACACA_site5507]	10.07 ± 0.021
AATTTTATACGATAAACATGCAAATAAATAAATAAA [TGCATGCA_site227]	9.985 ± 0.064
ATATAAATTCAAATTACACACATTTATTTTTTTTAC [CACACA_site53]	9.88 ± 0.19
AAATTATGCATCGAGGTGCGTCTTAAAATATAGTGG	10.2 ± 0.11
CTACATAATAAAAAAAGTACATTCTAATAAATTGAC [XGTACX_site4504]	11.4 ± 0.85
ACTAATAATTTGTCGGTGCATAAAATTATTTTTATT [GTGCAC_site9840]	10.3 ± 0.22
ATATATGTAACATATTGTACATATATGTATGTATGT [XGTACX_site3281]	11.3 ± 0.77
ATGATAAAATTATGTAGTACATATTTGAATGTAAAT [XGTACX_site688]	11.5 ± 0.74
GTATTAATAAAAATACGTACTTATTATTTATAATAA [XGTACX_site7672]	11.5 ± 1.1
ATTATTCATATAACACGTACAAAACGAAAAACAAAT [XGTACX_site3873]	11.3 ± 0.58
AATATCACCACATTGTTACTATAATATATAAAAAAG [XGTACX_negctrl_site384]	10.2 ± 0.26
AAAAGGAGAAATATTGCACACGTGCAAAATGGTATG [CACACA_site4300]	10.1 ± 0.021
TAATTTCTTATGTAGTGTACAAATAATATATGATAT [XGTACX_site597]	11.1 ± 0.72
AATATCTGTATATCCACACACATATATATATATATA [CACACA_site4987]	10.1 ± 0.099
TAATCGGTAATATTAACACACACATTTATATATATT [CACACA_site8274]	10.05 ± 0.078

Sequence	gcPBM binding intensity (ln)
ATTTTGTTATGAAACACACACATATATATATATATA [CACACA_site3650]	10.4 ± 0.71
ATTCATAAAAGTTGTACATGCAATTTTTTTTTTTTT [TGCATGCA_site270]	11.2 ± 0.71
AATAAAATAATCCAAGTGCATATGTAAAAATACATT [GTGCAC_site9576]	9.95 ± 0.071
AATATATGTAAATGGACACACACATATATATATATA [CACACA_site9220]	10.7 ± 0.57
AAAAAAAAAAGACACACACACACACGCATATACATA [CACACA_site7289]	10.2 ± 0.27
TACGTAAAAATAATACGTACATATATTTATAGAAAA [XGTACX_site4959]	11.6 ± 0.93
ACGGACAATACGGAAACACACAAGTTATTTTATCAT [CACACA_site7310]	10.19 ± 0.035
TTTTTTTTTTTTAAATGTACTTATCAACTTTTATAT [XGTACX_site4641]	11 ± 0.79
ACTTATATTATAAATTGTACAAATATTATATTTGGT [XGTACX_site1424]	10.8 ± 0.48
TTATTTTGTTTATTATGTACACAAAGACATAATAAT [XGTACX_site5648]	11.3 ± 0.89
CACTTACATAATTATTGTACAGATATTATCAAATAA [XGTACX_site567]	11 ± 0.6
TGACTTTGTTGAATTTGTCCTCTTAACTCATAATAT [GTGCAC_negctrl_site217]	10.6 ± 0.48
TTCTGTGTCTAAAAATGTACGGGAATATATAAAAGT [XGTACX_site2090]	11.1 ± 0.69
ACATAATATATATATTAACACACATCCTTTTATGTA [CACACA_site8317]	10.3 ± 0.13
TTTAATTTTACATGAGAAACATATTACAATAAAATA [GTGCAC_negctrl_site606]	9.8 ± 0.2
AACCATGTTAACAATGCATGCATCACTATATAAACG [TGCATGCA_site421]	9.82 ± 0.16
ATACATATATATAGGTGTACATATAATATATATATA [XGTACX_site2228]	11.6 ± 0.83
GAAATACCGGAAAGCAAACACACATTTTAAAACCAT [CACACA_site3861]	10.09 ± 0.049
ATATTTTTTGGAAAGTGTACAATATTATATATTAAA [XGTACX_site2163]	11.2 ± 0.75
